# Measured values taken from the supplement of paper PMC11417369.
# Some of the results follow.
# Test system: PfAP2-HC AP2 domain (GST-tagged)
# Experiment: gcPBM binding intensity (ln(normalized median fluorescence intensity)); higher = stronger DNA binding
# Method in brief: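 Using an Agilent 4 × 180k array, primer-extended double-stranded 36-bp intergenic genomic probes and negative controls were exposed for 1 h to GST-fused P. falciparum DNA-binding domains expressed in E. coli. Binding was carried out in 1× PBS with 1% milk, 0.2 mg/ml BSA, 0.5% salmon testes DNA and 0.03% Triton X-100, and protein was detected with Alexa488 anti-GST antibody and a 488 nm scan. Binding intensity is the highest Masliner-normalised natural-log median intensity across replicate spots of either probe orientation.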
row,Sequence,gcPBM binding intensity (ln)
1,AAAACATCAAAAATGTGTACATATATATATATATAT [XGTACX_site8884],9.64
2,ATATATATATATGCATGTACATATTTATCTTTATAT [XGTACX_site232],10
3,AATTTAAAACGGAGATGTACATATATAAATATATAC [XGTACX_site3723],9.79
4,CGGCTATTTCTATATACATGCATTTAAAAAAAAAAT [TGCATGCA_site354],9.39
5,AAAAAAAAAATGAGCACACATAAATAAAAACAAACA [CACACA_site1573],10.2
6,ACCTATTTCAAACACACACACACACTAACAAACATA [CACACA_site8233],10.8
7,AGTTATTTTAAATGTAGTACACAAAAGAAATATTAA [XGTACX_site4092],9.58
8,CATAAATTAAAACACACACACACAAAAAAAAAAAAA [CACACA_site2262],11.6
9,ATATTATATATATACACACACACATGCATGCACATA [CACACA_site7917],10.3
10,TAAAATTTGCGATGCACACAGAATAGCTAATATGAC [CACACA_site2995],10
11,TATTTTCTCGTTTGCATGCACCTTATTTTATGTGGT [GTGCAC_site9470],10.1
12,AAATTCTGCATCGAGGTGCGCCATAAAAATTGTGGT,9.55
13,TACTAAAACCCATACACACACATATTTATAGTACCA [CACACA_site7484],10.6
14,TATACAATATATATAACACACATATTTATATAAAAT [CACACA_site5061],9.81
15,AAAATACCATTTGAAACACACAAAAAAAAAAAAAAT [CACACA_site2981],10.1
16,CAGTTGGAAGGAAAGTGTACATAAAAAAAAATATAA [XGTACX_site8784],9.58
17,AACATAAAAATTGAAGCACACACACTAATGAAATAC [CACACA_site8287],10.6
18,ACAAATCTATAAGAGTGTACGAACAGTAAAGGAATT [XGTACX_site2070],9.96
19,ATAAAAATTAAAAGGAGTACTTAAATATTAAGATGG [XGTACX_site4815],9.69
20,TTTAAAAATATATATTGTACATATATATATCTATGA [XGTACX_site3556],9.4
21,TACTATTTAAAATTTGAACACACATTATTTATTTTA [CACACA_site9020],9.7
22,AAAAAAAAAAAAAAGACACACAATGTGAAATAATAA [CACACA_site804],9.98

row,Sequence,gcPBM binding intensity (ln)
1,AATATATTTCGAGATACACACATATATAAAAAAAAA [CACACA_site3398],9.77
2,AATAGAACAAATAAAACACACACATATATATATATA [CACACA_site8893],10.1
3,AAAATAAAATAAAATACACACATACATACATACAAA [CACACA_site5366],10.2
4,CAATAAAGAGGGAATTGTACTTTAAATATCCCTCTT [XGTACX_site1991],9.5
5,ATATATCACAATAAAATTTATAGAATTTTAAATAAG [TGCATGCA_negctrl_site437],9.29
6,GTTCAATCGGGTGTTACTTCAAACAAGGAACAACAA [TGCATGCA_negctrl_site471],9.56
7,ATAGTAAATATAAAAAGTACTGATTCTTAAATTGTT [XGTACX_site5972],9.7
8,TATTTTATTGTTGTTATACACACCATATAAAATATT [CACACA_site1630],9.77
9,ACTTGACACCAACACACACACATATATAAAAAAAAA [CACACA_site756],11
10,TTTTAAAGAAAATATTTTATCATTATTTTTTGTACT [CACACA_negctrl_site1648],9.57
11,TTTTAAAATTTTTTTTTTTTTTTTTTATGAACAAGT [GTGCAC_negctrl_site124],9.22
12,AATATTTTAAATATTGCATGCAATGAAAAATGTAAA [TGCATGCA_site139],9.64
13,TCTTATTTTTTTATATATACAAAGTTTTATATATAT [GTGCAC_negctrl_site314],9.68
14,ATATATTGATATATGTGTACATAGCTTATTTCATTT [XGTACX_site1800],9.74
15,ATATAATATATGTAAGTGCGCTTATAAATAAAACGA [GTGCAC_site9841],10
16,TATATAGAAAACAAGGCATGCAAATAACAAATTGTG [TGCATGCA_site473],10.2
17,AACAAAAATGAAAAAACACACATAACATATATAAAT [CACACA_site740],10.1
18,AAAAAAAAAAAAAAAGTGCACTGAAAATATATTGAA [GTGCAC_site9395],9.76
19,TTTTTAATTATTTATATAACGATAATCCTTACATAA [TGCATGCA_negctrl_site180],9.22
20,ATAATATAAATAAAAACACACACAATCGTACATATA [CACACA_site9223],10.2
21,ATAAATATATATTTACGTACATATTATATATATATA [XGTACX_site6172],9.61
22,AAAAAAATTTCACATTGTACTTTAATAATATACTAC [XGTACX_site7264],9.64

row,Sequence,gcPBM binding intensity (ln)
1,ACATATAAATTGTGTACACATATATATATATTTTTT [CACACA_site5946],9.84
2,GAATGCATGTAAATATGTACATATATTTAAAAATTT [XGTACX_site6032],9.63
3,TGTTAAAAGGTTAAATTAAAATAACCTCCGGAAATT [GTGCAC_negctrl_site236],9.4
4,TTTATATGTATACAAACATATAAATATAAATGTATT [TGCATGCA_negctrl_site346],9.59
5,TGTTCTATGATTTGTACACACTTTTTTTTAAAATGC [CACACA_site5558],9.78
6,TATATATACATATACACACACACACCGATATATATA [CACACA_site8706],10.5
7,GTTTTGTACATATTCTCACACATATAAAAATACCCA [CACACA_site4446],9.68
8,TTCATAATAAAAAGGTGTACATATATATATATATAT [XGTACX_site2829],10.1
9,AAGCATTTAATGTTTTATATAACATGTATTTTTTAT [CACACA_negctrl_site673],9.57
10,TATCGAGCCATTTTTACATGCAATTATACATAATTT [TGCATGCA_site987],9.71
11,TTCAAATAATTTAAATGTACGTTGCTTTATTAAAAG [XGTACX_site3674],9.19
12,CATGTATACTATAATACACACTATAAAATATACACC [CACACA_site7121],9.86
13,TAAAATGAATATAGGTGTACTTAAAAAAAAGTAAAA [XGTACX_site4613],9.61
14,TAAATTCTTTATAATCGTACATAAATAGAAAAATAA [XGTACX_site601],9.4
15,TAAAAGAAATAATATACACACATATATAAAAATAAA [CACACA_site1329],9.92
16,AAATATATGTTATATGTGCACTTTTTTTTTTTTTTT [GTGCAC_site9667],9.58
17,CTTACTTACTTACTCACACACATATACAAAGAAAAA [CACACA_site3347],10
18,TTTTACTAAATATATACACACATTATACATATATAT [CACACA_site9081],10.2
19,ATGATGAAAATAGAAATACACACTAAAAAATAAAAT [CACACA_site1136],9.9
20,ATAAATAATAAAAAATGTACACATATAAATATAAAG [XGTACX_site727],10.2
21,AAAACATGTTCAACATGTACACAACAGGATGAATAT [XGTACX_site506],9.85
22,AGGAAACAAGAAATGAAGAATCATGTAGAAGGCCCA [GTGCAC_negctrl_site187],9.71

row,Sequence,gcPBM binding intensity (ln)
1,TATATAACCGAGTGCACACACAAAAAAAAAGTGAAC [CACACA_site6806],10.2
2,AATAATATAAATATTACACACTAATTGTATTATAGA [CACACA_site6347],9.72
3,TATTAAATATTGTATACATGCAAATACTAGAAAATT [TGCATGCA_site370],9.59
4,TAAATTAAAAAAAATACACACACACCGACACATATA [CACACA_site9084],10.6
5,AAAAAGAAGAATAATACACACAAATTACTTTATATA [CACACA_site6984],9.87
6,TTCGTAACTGATTCAACACACAAAAGGGGGAAAATT [CACACA_site1754],9.72
7,ATATATATATATATGTGTACATATATTAAGATATAT [XGTACX_site1065],9.79
8,AATTACAAATATTCATGTACATATTTATAAATACAT [XGTACX_site5430],9.7
9,ATATTATAGAAATATACACACATTGTTTTATAGCAT [CACACA_site7177],9.8
10,TATGTTATATAATATTGTACACAAAATGGTTTCTAT [XGTACX_site7686],9.63
11,ATATTACGCACAAAAAAAAAAAAAAAAAAAAAAAAA [CACACA_negctrl_site941],9.1
12,AAAATTAAAATTTTCACACAGATATATTTACAATTT [CACACA_site5692],9.63
13,ATGATGTGCTTTAAAAGTACTTAAGTTATATTCTTT [XGTACX_site7127],9.7
14,ATATATATGAAACACACACACAAAAAAAAAAAAAAA [CACACA_site3647],10.3
15,ATAACACAAAATTGTTGTACACGTGTTAATAAGTGA [XGTACX_site4452],10.2
16,TAAAGTTATGCAATAACACACATATACAATACATAT [CACACA_site6698],9.92
17,AATATTTATATAAATGCATGCTGATACAACAGTCTT [TGCATGCA_site21],9.63
18,AGGTATGTCTATAAATGTACATATGAGTTCAATTTC [XGTACX_site2244],9.65
19,CACAGTGATATAAAAACACACATGAATTCTAATTTC [CACACA_site6884],9.77
20,CATAAAAATATTAATAAACACACAATCAGATATTGA [CACACA_site9032],10
21,AAATATATATAAACAAGTACATATTTAAAAAAAGGA [XGTACX_site2631],9.83
22,CCCTCCCCATGTTTAGTGCAAAAATATTTGAAATTG [GTGCAC_site9873],10.2
